Experimental data: PubChem BioAssay AID686979 (National Center for Advancing Translational Sciences (NCATS), 2013)
“And” between values parts separate entries of the source, which are not always exact repeats. Equal entries are not always repeated. About 50,000 (12%) of roughly 420,000 compounds were called active. Inconclusive results, whose numbers are uncertain, are shown with a selection of clear calls. Calls come from the whole dose curve; as a rule, active = well fitted inhibition curve with a large enough effect; inconclusive = small, poorly fitted or top-dose-only effect; inactive = flat fitted curve, though single readings scatter. Where the call is inconclusive, the potency comes from a doubtful curve fit. Where a structure was tested more than once in an assay, its records may differ in their call.
% is set by controls: 0 for no effect and ±100 for the full control effect; potency is the fitted concentration of half-maximal effect; tags give direction and shape of the fitted curve.

Experiment: qHTS for Inhibitors of human tyrosyl-DNA phosphodiesterase 1 (TDP1): qHTS in cells in presence of CPT; note: nearly all actives have a fitted effect of over 55% in size
Details: chicken DT40 Tdp1-/-;hTDP1 cells + 20 nM CPT, ATP luminescence, 48 h; activity change, negative = growth inhibition: at 46.2 µM (top of the series) unless noted
How it was run: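 Chicken DT40 Tdp1-/- cells stably complemented with human TDP1 were seeded at 400 cells/well in medium containing 20 nM camptothecin, exposed to pin-transferred compounds, and grown at 37 °C for at least 48 hr. Viability was read as ATP luminescence.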
For `O=S(=O)(c1ccc(Cl)cc1)N1CN(CC2CCCO2)c2nc3ccccc3nc21` (stereo unspecified), the Potency was inconclusive: 16.4 µM [inhibitor, single point]. In the case of `CCOc1ccc(-c2nc(SCC(=O)Nc3ccc4c(c3)OCO4)c(-c3ccc(F)cc3)[nH]2)cc1`, the Potency was “inactive”. For `Cc1ccc(C2CC(=O)c3cnn(-c4nc(C)cc(C)n4)c3C2)cc1` (stereo unspecified), the Potency was “inactive”. For `Cc1cc(=O)[nH]c2ccc(O)cc12`, the Potency was active: 0.355 µM. For `O=C(CN1C2CCCC1CC(NC(=O)C1CCCCC1)C2)Nc1ccccc1` (stereo unspecified), the Potency was active: 14.6 µM. In the case of `Cc1ccc2ncnc(Nc3ccc(C)c(C)c3)c2c1`, the Potency was inconclusive: 18.4 µM [inhibitor, partial curve]. With `Cc1cccc(NS(=O)(=O)c2ccc(C(=O)NCC(c3ccco3)N(C)C)cc2)c1C` (stereo unspecified) the Potency was inconclusive: 20.6 µM [inhibitor, single point]. With `O=C(Nc1ccc(-c2nnc(-c3ccco3)o2)cc1)C(c1ccccc1)c1ccccc1` the Potency was active: 9.2 µM. With `Cc1ccc(S(=O)(=O)Nc2cccc(Cl)c2)cc1NC(=O)C1CC1` the Potency was inconclusive: 18.4 µM [inhibitor, single point]. With `O=c1cnc2cnc(N3CCOCC3)nc2n1C[C@H]1CCCO1` the Potency was “inactive”. For `Cc1csc2nc(-c3cccc(NC(=O)C(C)C)c3)cn12`, the Potency was inconclusive: 25.9 µM [inhibitor, single point]. In the case of `CCCCc1c(-c2ccccc2OC)ncn1CCc1cccc(OC)c1`, the Potency was active: 14.6 µM. In the case of `CCN(CC#CCC(O)(c1ccccc1)c1ccccc1)C(C)C`, the Potency was “inactive”. With `Cc1cc(=S)cc(C)n1CCCn1ccnc1` the Potency was “inactive”. In the case of `COc1ccc(-c2n[nH]c(=S)n2-c2ccc(C)cc2C)cc1`, the Potency was inconclusive: 25.9 µM [inhibitor, single point]. In the case of `CS(=O)(=O)NC(=O)CCC/C=C\C[C@H]1C(=O)C[C@@H](O)[C@@H]1/C=C/[C@H](O)COc1ccccc1`, the Potency was “inactive”. For `COc1ccc(-c2cc(C(=O)N3CCCCCC3)c3cc(C)ccc3n2)cc1`, the Potency was inconclusive: 29.1 µM [inhibitor, single point]. For `Cc1cnc(NC(=O)CSc2nnc(Cc3ccccc3)o2)s1`, the Potency was inconclusive: 29.1 µM [inhibitor, single point]. In the case of `CCOC(=O)[C@H]1[C@H]2COc3ccc(OC)cc3[C@@H]2N2C(=O)CN(Cc3ccc(F)cc3)C(=O)[C@@]12C`, the Potency was inconclusive: 25.9 µM [inhibitor, single point]. For `Brc1ccc2oc3c(N4CCOCC4)ncnc3c2c1`, the Potency was inconclusive: 23.1 µM [inhibitor, single point]. With `CCc1cccc(CC)c1NC(=O)c1cc(CN2C(=O)c3ccccc3C2=O)ccc1OC` the Potency was inconclusive: 29.1 µM [inhibitor, single point]. In the case of `C=CCOc1ccc(CN(C)c2ccc(S(=O)(=O)N3CCN(C)CC3)cc2[N+](=O)[O-])cc1`, the Potency was inconclusive: 25.9 µM [inhibitor, single point]. In the case of `CCC(c1nnnn1C(C)(C)CC)N1CCN(c2ccccc2F)CC1` (stereo unspecified), the Potency was “inactive”. For `O=C(Cn1c(C(=O)NCc2ccco2)cc2sccc21)c1ccccc1`, the Potency was inconclusive: 23.1 µM [inhibitor, single point]. In the case of `Cc1cc(C)nc(-n2nc(C)cc2NC(=O)c2cccc(S(=O)(=O)N3CCOCC3)c2)n1`, the Potency was inconclusive: 29.1 µM [inhibitor, single point]. In the case of `CCc1cc2c(SCC(=O)c3ccc(C)cc3)ncnc2s1`, the Potency was inconclusive: 5.17 µM [inhibitor, full curve]. For `O=C(C[n+]1cccc(CNC(=O)c2ccc(OC(F)F)cc2)c1)Nc1ccc(SC(F)F)cc1`, the Potency was inconclusive: 23.1 µM [inhibitor, partial curve, poor fit]. With `COc1cccc(-n2c(=O)n(Cc3ccccc3)c(=O)c3[nH]cnc32)c1` the Potency was “inactive”. With `CCOC(=O)c1c(NC(=O)c2cccs2)sc(C(=O)N2CCOCC2)c1C` the Potency was inconclusive: 29.1 µM [inhibitor, single point]. For `CS(=O)(=O)N(CC(=O)N1CCN(c2ccccc2)CC1)c1cccc(Br)c1`, the activity change, negative = growth inhibition was inconclusive: -30.3% [inhibitor]. With `CCOC(=O)c1cccc(NC(=O)[C@@H](c2ccccc2)N2Cc3ccccc3C2=O)c1` the Potency was inconclusive: 20.6 µM [inhibitor, single point]. For `O=C(CCn1c(=O)[nH]c2ccccc2c1=O)N1CCN(c2ccc(Cl)cc2)CC1`, the Potency was inconclusive: 29.1 µM [inhibitor, single point]. For `CC1CCCC(NC(=O)c2ccc3c(c2)NC(=O)CS3)C1C` (stereo unspecified), the Potency was “inactive”. For `CCOc1ccc(N2C(=O)CC(N(Cc3ccco3)C(=O)CC)C2=O)cc1` (stereo unspecified), the Potency was “inactive”. In the case of `COc1ccccc1NC(=O)C1CC(C)OC1=O` (stereo unspecified), the Potency was “inactive”. With `Cc1cc(C)c(NC(=O)Cc2csc(C)n2)c(Cl)c1` the Potency was inconclusive: 29.1 µM [inhibitor, single point]. For `CCOc1ccccc1C(=O)N(Cc1ccco1)C1CCS(=O)(=O)C1` (stereo unspecified), the Potency was “inactive”. With `CC1CC/C(=C\c2ccc3c(c2)OCO3)C(=O)/C1=C/c1ccc2c(c1)OCO2` (stereo unspecified) the Potency was inconclusive: 23.1 µM [inhibitor, single point]. With `Cc1ccc(NC(=O)CN2C(=O)NC3(CCCc4ccccc43)C2=O)c(C)c1` (stereo unspecified) the Potency was inconclusive: 32.6 µM [inhibitor, partial curve, poor fit]. With `CC(=O)c1cccc(NC(=O)C(C)OC(=O)c2cc(C)oc2C)c1` (stereo unspecified) the Potency was “inactive”. In the case of `Cc1ccc(C)c(N(C(=O)Cn2nnc(-c3cccs3)n2)C(C(=O)NC2CC2)c2ccc(C)o2)c1` (stereo unspecified), the Potency was inconclusive: 29.1 µM [inhibitor, single point]. In the case of `C[C@@H]1CC=C[C@H]2[C@H]1C(=O)N(Cc1ccccc1)[C@H]2c1ccc(-c2cc3ccccc3s2)cc1F`, the Potency was active: 16.4 µM. With `CCN1C(=O)c2ccccc2Sc2ccc(C(=O)NCCCN(CC(C)C)CC(C)C)cc21` the Potency was active: 18.4 µM and active: 14.6 µM. With `CC1COc2c(N3CCN(C)CC3)c(F)cc3c(=O)c(C(=O)O)cn1c23` (stereo unspecified) the Potency was active: 20.6 µM. In the case of `NS(=O)(=O)c1ccc(Cl)c(C(=O)Nc2ccccc2[N+](=O)[O-])c1`, the Potency was “inactive”. In the case of `CC(=O)Nc1cc([N+](=O)[O-])cc(NC(C)=O)c1NC(C)=O`, the Potency was active: 7.08 µM. With `CC(=O)c1cccc(NC(=O)C2CC(=O)N(c3cccc(C)c3C)C2)c1` (stereo unspecified) the Potency was “inactive”. For `CC(C)C(=O)Nc1ccc(C(=O)Nc2ccc(Br)cc2F)cc1`, the Potency was inconclusive: 29.1 µM [inhibitor, single point]. For `COc1ccccc1CNc1ccc(-c2nc(-c3cccnc3)no2)cc1[N+](=O)[O-]`, the Potency was inconclusive: 5.8 µM [inhibitor, partial curve]. With `Cc1ccc(C(=O)Nc2ccc(-c3cn4cccnc4n3)cc2)cc1C` the Potency was inconclusive: 29.1 µM [inhibitor, single point]. With `S=C1NC(c2ccccc2)=CC(c2ccccc2)N1` (stereo unspecified) the Potency was inconclusive: 25.9 µM [inhibitor, single point]. In the case of `Cc1ccc(N(CCCCN2C(=O)c3ccccc3C2=O)C(=O)c2cccc([N+](=O)[O-])c2)cc1`, the Potency was inconclusive: 20.6 µM [inhibitor, single point]. For `COc1cccc(Cn2cnc(-c3ccccc3OC)c2-c2ccco2)c1`, the Potency was active: 18.4 µM. For `CCCCNC(=S)N(C)/N=C/c1ccc(OCC(=O)Nc2c(C)cc(C)cc2C)c(OC)c1`, the Potency was active: 13 µM. With `Cc1cc(NC(=O)CN2CCOCC2)n(-c2nc3ccccc3s2)n1` the Potency was active: 14.6 µM. For `CCCCN(C)C(=O)Cn1ncc2c3ccccc3n(CCC)c2c1=O`, the Potency was inconclusive: 20.6 µM [inhibitor, partial curve]. For `CS(=O)(=O)c1ccc(Cl)c(NC(=O)CSc2nnc(C3CC3)n2C2CC2)c1`, the Potency was “inactive”. With `CC(C)C(NC(=O)c1ccccc1F)C(=O)NCC(c1ccco1)N1CCCCC1` (stereo unspecified) the activity change, negative = growth inhibition was inconclusive: -31.6% [inhibitor]. For `O=C(CSc1nc2ccccc2c(=O)n1Cc1ccco1)c1ccccc1`, the Potency was active: 16.4 µM. In the case of `O=C(NCC1CCN(Cc2cccc(Cl)c2)CC1)Nc1cc(Cl)ccc1Cl`, the Potency was active: 23.1 µM. In the case of `COc1ccc(N(C)C(=O)CCn2cnc3onc(-c4ccc(F)cc4)c3c2=O)c(OC)c1`, the Potency was active: 20.6 µM. With `COc1cccc(NC(=O)CN2C(=O)c3cccnc3Oc3ccc(Cl)cc32)c1` the Potency was inconclusive: 20.6 µM [inhibitor, single point] and inconclusive: 32.6 µM [inhibitor, single point]. In the case of `O=C(N[C@@H](Cc1ccccc1)C(=O)OCc1ccccc1)c1nc[nH]c1C(=O)N1CCNCC1`, the Potency was “inactive”. With `COCc1c(C(=O)NCC(c2ccco2)N2CCCC2)oc2ccccc12` (stereo unspecified) the Potency was “inactive”. In the case of `Cc1ccc2nc(N3C(=O)C(O)=C(C(=O)c4ccco4)C3c3cccs3)sc2c1` (stereo unspecified), the Potency was inconclusive: 29.1 µM [inhibitor, single point]. For `CC(=O)c1cccc(NC(=O)NNC(=O)c2ccc(-c3ccccc3)cc2)c1`, the Potency was “inactive”. For `COc1cccc(NC(=S)N(CCCN2CCCC(C)C2)Cc2cccs2)c1` (stereo unspecified), the Potency was inconclusive: 13 µM [inhibitor, single point]. For `O=C(NCCc1ccccc1)c1cc(S(=O)(=O)N2CCOCC2)ccc1F`, the Potency was “inactive”. In the case of `CCc1ccc(NC(=O)/C(C#N)=C/c2ccncc2)cc1`, the Potency was inconclusive: 29.1 µM [inhibitor, single point]. With `CCCCN(CCCC)C(=O)c1cc2c(=O)n3cccc(C)c3nc2s1` the Potency was inconclusive: 25.9 µM [inhibitor, single point]. For `CCOC(=O)c1sc(S(C)=O)c2c1CCc1conc1-2` (stereo unspecified), the Potency was inconclusive: 29.1 µM [inhibitor, single point].
